No constants are given. Whether binding was seen depends on the method and setting. In cells and extracts the contact can be indirect. Some entries that bind do so weakly or less than the wild type. Where a sequence is shown, tags or fusion partners need not be part of it.

Protein sequences, listed by entry. Tags and fused reporters are not part of them.
UniProt Q39026: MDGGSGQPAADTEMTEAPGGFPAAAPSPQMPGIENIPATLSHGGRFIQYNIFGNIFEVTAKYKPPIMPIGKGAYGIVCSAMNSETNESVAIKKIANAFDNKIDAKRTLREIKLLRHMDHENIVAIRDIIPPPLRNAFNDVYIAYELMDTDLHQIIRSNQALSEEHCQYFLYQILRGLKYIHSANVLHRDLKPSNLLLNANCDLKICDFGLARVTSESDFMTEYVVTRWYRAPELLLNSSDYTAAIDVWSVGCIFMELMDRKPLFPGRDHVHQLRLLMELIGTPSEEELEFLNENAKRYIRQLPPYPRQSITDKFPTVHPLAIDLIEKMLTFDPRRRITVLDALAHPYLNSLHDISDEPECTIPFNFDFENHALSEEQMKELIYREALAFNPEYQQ

Assay [1] concerns the target T1, MPK3-Cluc (MPK3 fused to the C-terminal fragment of firefly luciferase) (Arabidopsis) (UniProt Q39023).
T1 sequence: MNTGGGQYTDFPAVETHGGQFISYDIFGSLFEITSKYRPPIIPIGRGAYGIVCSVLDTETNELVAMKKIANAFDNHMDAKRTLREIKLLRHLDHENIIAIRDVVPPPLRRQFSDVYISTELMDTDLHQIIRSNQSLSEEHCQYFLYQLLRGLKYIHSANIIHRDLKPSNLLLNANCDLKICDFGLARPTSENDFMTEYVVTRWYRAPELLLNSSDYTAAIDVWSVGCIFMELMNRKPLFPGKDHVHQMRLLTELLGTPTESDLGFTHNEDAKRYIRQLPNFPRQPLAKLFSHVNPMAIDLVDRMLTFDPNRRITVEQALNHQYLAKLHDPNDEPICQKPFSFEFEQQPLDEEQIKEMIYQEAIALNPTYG
Put plainly: split reporter; split-luciferase complementation imaging; constructs transiently coexpressed in N. benthamiana leaves by Agrobacterium GV3101, 48 h; 1 mM luciferin sprayed, cooled CCD imaging.

The target of assay [2] is MPK6-Cluc (MPK6 fused to the C-terminal fragment of firefly luciferase) (Arabidopsis) (UniProt Q39026). The assay is described as above.
For another assay, the target named is T2, Flag-MPK3 (Arabidopsis) (UniProt Q39023).
T2 sequence: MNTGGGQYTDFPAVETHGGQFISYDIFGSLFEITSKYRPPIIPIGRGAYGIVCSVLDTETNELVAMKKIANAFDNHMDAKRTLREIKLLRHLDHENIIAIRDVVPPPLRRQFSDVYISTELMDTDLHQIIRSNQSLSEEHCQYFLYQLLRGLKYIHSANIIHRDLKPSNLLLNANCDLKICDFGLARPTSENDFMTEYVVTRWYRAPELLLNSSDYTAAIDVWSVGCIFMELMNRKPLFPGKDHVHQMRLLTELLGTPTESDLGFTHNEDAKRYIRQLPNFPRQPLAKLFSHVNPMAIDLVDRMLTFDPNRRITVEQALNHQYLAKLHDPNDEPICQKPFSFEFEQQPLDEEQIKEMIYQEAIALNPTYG
Put plainly: co-IP; total protein from N. benthamiana leaves coexpressing Flag-MPK3 or Flag-MPK6 and GFP-VLN3, 48 h; anti-Flag agarose beads 2 h; washed five times (50 mM HEPES pH 7.5, 150 mM KCl, 1 mM EDTA, 0.5% Triton X-100, 1 mM DTT); anti-GFP and anti-Flag immunoblot; with or without flg22 treatment.

A further assay concerns the target Flag-MPK6 (Arabidopsis) (UniProt Q39026). The assay is described as above.

B1: VLN3-Nluc (Arabidopsis villin3 fused to the N-terminal fragment of firefly luciferase) (protein, UniProt O81645 1-965)
chain: MSGSTKVLDPAFQGVGQKPGTEIWRIENFEPVPVPKSEHGKFYMGDTYIVLQTTQNKGGAYLFDIHFWIGKDTSQDEAGTAAVKTVELDAALGGRAVQYREIQGHESDKFLSYFKPCIIPLEGGVASGFKKPEEEEFETRLYTCKGKRAVHLKQVPFARSSLNHDDVFILDTKEKIYQFNGANSNIQERAKALVVIQYLKDKFHEGTSDVAIVDDGKLDTESDSGEFWVLFGGFAPIARKVASEDEIIPETTPPKLYSIADGQVESIDGDLSKSMLENNKCYLLDCGSEIFIWVGRVTQVEERKTAIQAAEDFVASENRPKATRITRVIQGYEPHSFKSNFDSWPSGSATPANEEGRGKVAALLKQQGVGLKGLSKSTPVNEDIPPLLEGGGKLEVWYIDANSKTVLSKDHVGKLYSGDCYLVLYTYHSGERKEDYFLCCWFGKNSNQEDQETAVRLASTMTNSLKGRPVQARIFEGKEPPQFVALFQHMVVLKGGLSSGYKNSMTEKGSSGETYTPESIALIQVSGTGVHNNKALQVEAVATSLNSYDCFLLQSGTSMFLWVGNHSTHEQQELAAKVAEFLKPGTTIKHAKEGTESSSFWFALGGKQNFTSKKVSSETVRDPHLFSFSFNRGKFQVEEIHNFDQDDLLTEEMHLLDTHAEVFVWVGQCVDPKEKQTAFEIGQRYINLAGSLEGLSPKVPLYKITEGNEPCFFTTYFSWDSTKATVQGNSYQKKAALLLGTHHVVEDQSSSGNQGPRQRAAALAALTSAFNSSSGRTSSPSRDRSNGSQGGPRQRAEALAALTSAFNSSPSSKSPPRRSGLTSQASQRAAAVAALSQVLTAEKKKSPDTSPSAEAKDEKAFSEVEATEEATEAKEEEEVSPAAEASAEEAKPKQDDSEVETTGVTFTYERLQAKSEKPVTGIDFKRREAYLSEVEFKTVFGMEKESFYKLPGWKQDLLKKKFNLF
B1: the binding entry in assay [1] and in assay [2] was “binds” each time.

B2: GFP-VLN3 (protein, UniProt O81645 1-965)
chain: MSGSTKVLDPAFQGVGQKPGTEIWRIENFEPVPVPKSEHGKFYMGDTYIVLQTTQNKGGAYLFDIHFWIGKDTSQDEAGTAAVKTVELDAALGGRAVQYREIQGHESDKFLSYFKPCIIPLEGGVASGFKKPEEEEFETRLYTCKGKRAVHLKQVPFARSSLNHDDVFILDTKEKIYQFNGANSNIQERAKALVVIQYLKDKFHEGTSDVAIVDDGKLDTESDSGEFWVLFGGFAPIARKVASEDEIIPETTPPKLYSIADGQVESIDGDLSKSMLENNKCYLLDCGSEIFIWVGRVTQVEERKTAIQAAEDFVASENRPKATRITRVIQGYEPHSFKSNFDSWPSGSATPANEEGRGKVAALLKQQGVGLKGLSKSTPVNEDIPPLLEGGGKLEVWYIDANSKTVLSKDHVGKLYSGDCYLVLYTYHSGERKEDYFLCCWFGKNSNQEDQETAVRLASTMTNSLKGRPVQARIFEGKEPPQFVALFQHMVVLKGGLSSGYKNSMTEKGSSGETYTPESIALIQVSGTGVHNNKALQVEAVATSLNSYDCFLLQSGTSMFLWVGNHSTHEQQELAAKVAEFLKPGTTIKHAKEGTESSSFWFALGGKQNFTSKKVSSETVRDPHLFSFSFNRGKFQVEEIHNFDQDDLLTEEMHLLDTHAEVFVWVGQCVDPKEKQTAFEIGQRYINLAGSLEGLSPKVPLYKITEGNEPCFFTTYFSWDSTKATVQGNSYQKKAALLLGTHHVVEDQSSSGNQGPRQRAAALAALTSAFNSSSGRTSSPSRDRSNGSQGGPRQRAEALAALTSAFNSSPSSKSPPRRSGLTSQASQRAAAVAALSQVLTAEKKKSPDTSPSAEAKDEKAFSEVEATEEATEAKEEEEVSPAAEASAEEAKPKQDDSEVETTGVTFTYERLQAKSEKPVTGIDFKRREAYLSEVEFKTVFGMEKESFYKLPGWKQDLLKKKFNLF
In the case of B2, the binding entry with Flag-MPK3 (Arabidopsis) and in the assay with Flag-MPK6 (Arabidopsis) was “binds” each time.

B3: MDP25 (actin regulator, negative control of the split-LUC assay) (protein, UniProt Q96262 1-225)
chain: MGYWNSKVVPKFKKLFEKNSAKKAAAAEATKTFDESKETINKEIEEKKTELQPKVVETYEATSAEVKALVRDPKVAGLKKNSAAVQKYLEELVKIEFPGSKAVSEASSSFGAGYVAGPVTFIFEKVSVFLPEEVKTKEIPVEEVKAEEPAKTEEPAKTEGTSGEKEEIVEETKKGETPETAVVEEKKPEVEEKKEEATPAPAVVETPVKEPETTTTAPVAEPPKP
For the molecule B3, the binding entry in assay [1] and in assay [2] was “no binding” in each case.

The record behind these values is PMC8578381.
